Results are given in words; binding and its absence hold for the method and conditions named. Binding seen in cells or lysates may run through a third protein. Some binding calls cover weakened binding; strength is not graded here. Where a sequence is shown, tags or fusion partners need not be part of it. One block for each binder: values may come before it.
What was measured:
[1] = molecular target: T1, Flag-tagged full-length USP36 (wild-type) (UniProt Q9P275); assay: co-IP; H1299 cells transfected with Flag-USP36 or control; IP with anti-Flag antibody, immunoblot for endogenous DGCR8 and Drosha
T1 sequence: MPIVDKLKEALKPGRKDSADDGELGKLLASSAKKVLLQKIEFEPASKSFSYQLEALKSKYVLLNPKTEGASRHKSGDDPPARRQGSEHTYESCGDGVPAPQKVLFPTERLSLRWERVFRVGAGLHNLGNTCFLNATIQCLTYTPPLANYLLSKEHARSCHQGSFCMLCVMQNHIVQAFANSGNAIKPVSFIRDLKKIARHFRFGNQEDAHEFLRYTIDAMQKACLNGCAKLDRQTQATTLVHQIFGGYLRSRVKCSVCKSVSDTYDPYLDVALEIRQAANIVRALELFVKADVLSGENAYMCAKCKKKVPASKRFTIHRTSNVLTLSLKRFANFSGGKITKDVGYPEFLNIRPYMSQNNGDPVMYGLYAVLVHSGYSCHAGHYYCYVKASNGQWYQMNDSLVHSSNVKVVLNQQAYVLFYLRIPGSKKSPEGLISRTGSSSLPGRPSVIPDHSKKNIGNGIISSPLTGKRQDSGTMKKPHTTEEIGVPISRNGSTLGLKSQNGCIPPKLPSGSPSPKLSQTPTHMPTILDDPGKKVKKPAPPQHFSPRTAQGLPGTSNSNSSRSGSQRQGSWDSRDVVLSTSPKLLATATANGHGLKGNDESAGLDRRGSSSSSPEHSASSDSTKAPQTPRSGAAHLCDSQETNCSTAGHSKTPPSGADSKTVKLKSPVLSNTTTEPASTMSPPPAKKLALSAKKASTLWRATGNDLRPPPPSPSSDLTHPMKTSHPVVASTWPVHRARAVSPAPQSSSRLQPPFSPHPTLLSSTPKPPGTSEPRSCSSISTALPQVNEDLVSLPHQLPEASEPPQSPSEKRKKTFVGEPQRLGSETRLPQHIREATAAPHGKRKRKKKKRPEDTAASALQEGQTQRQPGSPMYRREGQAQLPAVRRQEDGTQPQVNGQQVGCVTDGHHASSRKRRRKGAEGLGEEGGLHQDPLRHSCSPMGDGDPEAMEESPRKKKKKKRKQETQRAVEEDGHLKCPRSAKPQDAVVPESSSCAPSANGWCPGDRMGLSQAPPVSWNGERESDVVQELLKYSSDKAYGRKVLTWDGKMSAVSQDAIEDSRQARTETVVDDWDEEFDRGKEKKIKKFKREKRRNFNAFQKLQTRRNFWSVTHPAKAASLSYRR

[2] = molecular target: T1, Flag-tagged full-length USP36 (wild-type); assay: co-IP; 293 cells transfected with Flag-USP36 together with scr control, Drosha siRNA or DGCR8 siRNA (single siRNA or pool); IP with anti-Flag antibody, immunoblot
[3] = molecular target: T2, Flag-USP36 deletion mutant, N-terminal USP domain containing region (amino acids 1-420) (UniProt Q9P275); assay: co-IP; H1299 cells co-transfected with a Flag-tagged and a V5-tagged protein; NP40 lysis buffer (50 mmol/L Tris-HCl pH 8.0, 0.5% NP-40, 1 mmol/L EDTA, 150 mmol/L NaCl); IP with anti-Flag antibody, immunoblot
T2 sequence: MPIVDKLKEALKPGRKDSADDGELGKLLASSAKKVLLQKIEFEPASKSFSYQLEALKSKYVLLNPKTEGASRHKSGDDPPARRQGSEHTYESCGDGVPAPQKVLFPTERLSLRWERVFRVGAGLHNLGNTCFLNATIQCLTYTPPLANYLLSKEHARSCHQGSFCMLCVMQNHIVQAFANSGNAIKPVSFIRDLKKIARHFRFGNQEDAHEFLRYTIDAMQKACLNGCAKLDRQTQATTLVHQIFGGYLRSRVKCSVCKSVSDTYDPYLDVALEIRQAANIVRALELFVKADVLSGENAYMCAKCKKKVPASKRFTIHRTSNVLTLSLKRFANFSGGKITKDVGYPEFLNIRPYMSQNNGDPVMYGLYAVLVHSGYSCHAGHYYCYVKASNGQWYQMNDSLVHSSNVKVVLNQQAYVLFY

[4] = molecular target: T1, Flag-tagged full-length USP36 (wild-type); assay: as above
[5] = molecular target: T3, Flag-USP36 deletion mutant, C-terminal nucleolar localization signal containing region (aa 801-1121) (UniProt Q9P275); assay: as above
T3 sequence: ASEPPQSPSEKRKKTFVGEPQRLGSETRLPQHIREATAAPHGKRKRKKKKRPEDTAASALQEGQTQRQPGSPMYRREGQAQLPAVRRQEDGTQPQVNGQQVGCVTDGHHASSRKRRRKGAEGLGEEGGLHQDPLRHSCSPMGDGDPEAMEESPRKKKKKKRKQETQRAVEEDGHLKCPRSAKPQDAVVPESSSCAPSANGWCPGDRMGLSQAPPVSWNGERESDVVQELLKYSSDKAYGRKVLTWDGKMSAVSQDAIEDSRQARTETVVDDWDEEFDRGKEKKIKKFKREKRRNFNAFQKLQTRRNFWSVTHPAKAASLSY

binding [1]: binds
binding [2]: binds
B1: endogenous DGCR8 (protein, UniProt Q8WYQ5 1-773)
chain: METDESPSPLPCGPAGEAVMESRARPFQALPREQSPPPPLQTSSGAEVMDVGSGGDGQSELPAEDPFNFYGASLLSKGSFSKGRLLIDPNCSGHSPRTARHAPAVRKFSPDLKLLKDVKISVSFTESCRSKDRKVLYTGAERDVRAECGLLLSPVSGDVHACPFGGSVGDGVGIGGESADKKDEENELDQEKRVEYAVLDELEDFTDNLELDEEGAGGFTAKAIVQRDRVDEEALNFPYEDDFDNDVDALLEEGLCAPKKRRTEEKYGGDSDHPSDGETSVQPMMTKIKTVLKSRGRPPTEPLPDGWIMTFHNSGVPVYLHRESRVVTWSRPYFLGTGSIRKHDPPLSSIPCLHYKKMKDNEEREQSSDLTPSGDVSPVKPLSRSAELEFPLDEPDSMGADPGPPDEKDPLGAEAAPGALGQVKAKVEVCKDESVDLEEFRSYLEKRFDFEQVTVKKFRTWAERRQFNREMKRKQAESERPILPANQKLITLSVQDAPTKKEFVINPNGKSEVCILHEYMQRVLKVRPVYNFFECENPSEPFGASVTIDGVTYGSGTASSKKLAKNKAARATLEILIPDFVKQTSEEKPKDSEELEYFNHISIEDSRVYELTSKAGLLSPYQILHECLKRNHGMGDTSIKFEVVPGKNQKSEYVMACGKHTVRGWCKNKRVGKQLASQKILQLLHPHVKNWGSLLRMYGRESSKMVKQETSDKSVIELQQYAKKNKPNLHILSKLQEEMKRLAEEREETRKKPKMSIVASAQPGGEPLCTVDV

binding [3]: binds
binding [4]: binds
binding [5]: binds
B2: V5-Drosha (enzyme, UniProt Q9NRR4 1-1374)
chain: MMQGNTCHRMSFHPGRGCPRGRGGHGARPSAPSFRPQNLRLLHPQQPPVQYQYEPPSAPSTTFSNSPAPNFLPPRPDFVPFPPPMPPSAQGPLPPCPIRPPFPNHQMRHPFPVPPCFPPMPPPMPCPNNPPVPGAPPGQGTFPFMMPPPSMPHPPPPPVMPQQVNYQYPPGYSHHNFPPPSFNSFQNNPSSFLPSANNSSSPHFRHLPPYPLPKAPSERRSPERLKHYDDHRHRDHSHGRGERHRSLDRRERGRSPDRRRQDSRYRSDYDRGRTPSRHRSYERSRERERERHRHRDNRRSPSLERSYKKEYKRSGRSYGLSVVPEPAGCTPELPGEIIKNTDSWAPPLEIVNHRSPSREKKRARWEEEKDRWSDNQSSGKDKNYTSIKEKEPEETMPDKNEEEEEELLKPVWIRCTHSENYYSSDPMDQVGDSTVVGTSRLRDLYDKFEEELGSRQEKAKAARPPWEPPKTKLDEDLESSSESECESDEDSTCSSSSDSEVFDVIAEIKRKKAHPDRLHDELWYNDPGQMNDGPLCKCSAKARRTGIRHSIYPGEEAIKPCRPMTNNAGRLFHYRITVSPPTNFLTDRPTVIEYDDHEYIFEGFSMFAHAPLTNIPLCKVIRFNIDYTIHFIEEMMPENFCVKGLELFSLFLFRDILELYDWNLKGPLFEDSPPCCPRFHFMPRFVRFLPDGGKEVLSMHQILLYLLRCSKALVPEEEIANMLQWEELEWQKYAEECKGMIVTNPGTKPSSVRIDQLDREQFNPDVITFPIIVHFGIRPAQLSYAGDPQYQKLWKSYVKLRHLLANSPKVKQTDKQKLAQREEALQKIRQKNTMRREVTVELSSQGFWKTGIRSDVCQHAMMLPVLTHHIRYHQCLMHLDKLIGYTFQDRCLLQLAMTHPSHHLNFGMNPDHARNSLSNCGIRQPKYGDRKVHHMHMRKKGINTLINIMSRLGQDDPTPSRINHNERLEFLGDAVVEFLTSVHLYYLFPSLEEGGLATYRTAIVQNQHLAMLAKKLELDRFMLYAHGPDLCRESDLRHAMANCFEALIGAVYLEGSLEEAKQLFGRLLFNDPDLREVWLNYPLHPLQLQEPNTDRQLIETSPVLQKLTEFEEAIGVIFTHVRLLARAFTLRTVGFNHLTLGHNQRMEFLGDSIMQLVATEYLFIHFPDHHEGHLTLLRSSLVNNRTQAKVAEELGMQEYAITNDKTKRPVALRTKTLADLLESFIAALYIDKDLEYVHTFMNVCFFPRLKEFILNQDWNDPKSQLQQCCLTLRTEGKEPDIPLYKTLQTVGPSHARTYTVAVYFKGERIGCGKGPSIQQAEMGAAMDALEKYNFPQMAHQKRFIERKYRQELKEMRWEREHQEREPDETEDIKK

binding [1]: binds
binding [2]: binds
B3: endogenous Drosha (enzyme, UniProt Q9NRR4 1-1374)
chain: B2 chain

From article PMC10026737
